The text below walks through data of PMC12136788.

To fix the notation:
B1: chr3:130650941:130650942:+_ENSG00000017260_ENST00000359644|hu_hu|FALSE|FALSE (ssRNA)
RNA: GGGAGUUCUACAGUCCGACGAUCAAUAAGGGGAUUUUUAAACUGAGAAAUAUACUUCUUCCACAGUGGCUCAUCUUCACUAAUAUCAAACUCAUUCCAGCCAUGAAAGGCUCGCCUAUGACUAACUUCACAUUUGUUUAGACCCAACAGAGGAUUGAGCAUCA
B2: chr17:53040142:53040143:-_ENSG00000166260_ENST00000299335|hu_mus|FALSE|FALSE (ssRNA)
RNA: GGGAGUUCUACAGUCCGACGAUCGCUGCUUCAAUUAUAGCCUGGAACUGGCAACUUGUGCCCUUCCUUUGCUUCAAAAAAAGUGUAAGAAAGAGUGAUGAGGUCGACAUUCACCAUUCUUGGAUCUUCUGCAAAUUCAGGAUCCAACAGAGGAUUGAGCAUCA
B3: chr5:74638446:74638447:+_ENSG00000113161_ENST00000287936|hu_hu|FALSE|FALSE (ssRNA)
RNA: GGGAGUUCUACAGUCCGACGAUCAGGGAUGGGAGGCCACAAAGAGGCCAUGCAUUCGAAAAAGUCUUGACAACAUUGUAGCUACAGAAUCCUUGGAUCCUCCAGAUCUCACUAGAGGCCACCGAACCCCGGCGCCGACGCUCACAACAGAGGAUUGAGCAUCA
B4: chr2:118749752:118749753:+_ENSMUSG00000040007_ENSMUST00000036578|mus_mus|FALSE|FALSE (ssRNA)
RNA: GGGAGUUCUACAGUCCGACGAUCAUUCCAUGUGAAGUCUUCCCUUUGGGUUUGGGAUAGGGCUUCCAAAACAACAACAAAAAAUUAACCUGUGAAGCCUUCAGGCCUACCCAGCCCAAUUACCCAUCAGGAACAGUUUAUCUUCAACAGAGGAUUGAGCAUCA
B5: chr6:149979360:149979361:-_ENSG00000131023_ENST00000543571|hu_hu|motif|central (ssRNA)
RNA: GGGAGUUCUACAGUCCGACGAUCAAAUGAUUGGGAAAAUACAAAUAAGUUCAUUAAAAACACAGGCUGAUUAUUCAUAUCGGUUACAUUCAGAAUUAUGCGAAACAAUUAGUUAUAUUGCAAAGCUGUAAUUCUUUUUCUAACCAACAGAGGAUUGAGCAUCA
B6: 142722499_142722619_4218_CDS_ENSMUSG00000057637_ENSMUST00000105778|mouse|control|control (ssRNA)
RNA: GGGAGUUCUACAGUCCGACGAUCCACUCCAUUUUUGGGCUGCACCGUCUGUCUCAGCGGCACUGGGUUUUUCUUAGGAGUGUACCUCUUCUUGUCACUUGCAGAUGCACACGCCAAGAUGUGCUUAUGCAGCUCAGGCAUGUUCAACAGAGGAUUGAGCAUCA

The list shows a part of the results.

This assay has as its target T1, UNK ZnF1-3 (human, UniProt Q9C0B0 31-174).
T1 sequence: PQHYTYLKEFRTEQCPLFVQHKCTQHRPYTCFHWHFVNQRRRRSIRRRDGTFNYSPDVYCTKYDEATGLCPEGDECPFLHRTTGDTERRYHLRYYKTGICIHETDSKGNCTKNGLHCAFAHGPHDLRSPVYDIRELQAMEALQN
As to the kind of experiment: nsRBNS (natural sequence RNA bind-n-seq); RBNS binding buffer (assumed for nsRBNS): 25 mM Tris pH 7.5, 150 mM KCl, 3 mM MgCl2, 0.01% Triton X-100, 500 ug/ml BSA, 20 U/ml SUPERase-In, 4 C; UNK is unkempt and MSI1 is Musashi-1; names of the RNAs are library labels; protein concentration not given here; high values mean tight binding.
As to B1, the binding signal was 1.16 enrichment R.
Turning to B2, the binding signal stood at 1.08 enrichment R.
B3: the binding signal amounted to 1.25 enrichment R.
The value for B4 was 0.603 enrichment R; that for B5 was 0.805 enrichment R.
B6 came in with a binding signal of 0.271 enrichment R.
